According to article PMC6919601, “Identification of Plasmodium dipeptidyl aminopeptidase allosteric inhibitors by high throughput screening” (PLoS ONE, 2019):
Screen size: about 110,000 compounds; about 230 (0.21%) showed an effect of 50% or more. This is one part of the list.

molecular target: DPAP1 (Plasmodium falciparum, UniProt Q8IIJ9); assay: primary screen, percent inhibition; read by cleavage of a fluorogenic dipeptide substrate; higher = more effect of the substance; set-up: species or system P. falciparum D10 trophozoite lysates; single well
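Further: 30 min substrate incubation versus DMSO and 10 µM JCP410 controls.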

Sequence of DPAP1 (Q8IIJ9 whole entry, looked up): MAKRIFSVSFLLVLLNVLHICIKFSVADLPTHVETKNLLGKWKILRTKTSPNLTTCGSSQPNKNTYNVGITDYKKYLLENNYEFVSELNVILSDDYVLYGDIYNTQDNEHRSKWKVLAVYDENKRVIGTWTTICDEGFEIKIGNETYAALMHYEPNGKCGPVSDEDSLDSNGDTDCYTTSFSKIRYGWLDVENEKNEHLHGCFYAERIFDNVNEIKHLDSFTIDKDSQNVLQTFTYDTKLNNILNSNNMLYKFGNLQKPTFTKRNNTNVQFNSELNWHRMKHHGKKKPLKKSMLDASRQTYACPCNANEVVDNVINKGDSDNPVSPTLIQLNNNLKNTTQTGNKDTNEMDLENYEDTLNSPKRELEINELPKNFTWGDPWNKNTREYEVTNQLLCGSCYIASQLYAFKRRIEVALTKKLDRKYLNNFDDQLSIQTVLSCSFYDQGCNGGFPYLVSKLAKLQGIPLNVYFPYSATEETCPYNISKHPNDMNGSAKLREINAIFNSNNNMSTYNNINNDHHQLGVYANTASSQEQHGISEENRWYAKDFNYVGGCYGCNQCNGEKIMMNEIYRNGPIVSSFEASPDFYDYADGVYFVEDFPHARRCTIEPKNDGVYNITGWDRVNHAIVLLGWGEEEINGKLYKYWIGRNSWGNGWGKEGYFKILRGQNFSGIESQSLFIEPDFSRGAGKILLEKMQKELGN

Row | SMILES | % Inhibition @ 10 uM [%]
1 | CCN(CC)CCN(CC)C1CCN(C)CC1 | -7.5
2 | CC(C)OCCCNC(=O)Cn1ccc2cc(S(=O)(=O)N3CCCCC3)ccc21 | 0.359
3 | CCOC(=O)N1CCC(NC(=O)c2cc3c(Cl)nc4ccccc4c3s2)CC1 | 3.88
4 | CCOC(=O)C1=CN(C(C)C)C=C(C(=O)OCC)C1c1cc(OC)ccc1OC | -5.05
5 | Cc1nc2c(c(C)c1CCC(=O)NCCc1c[nH]c3ccccc13)c(=O)n(C)c(=O)n2C | -3.1
6 | COc1ccc(CNC(=O)Cn2nc(C)n3c(cc4sccc43)c2=O)cc1 | -1.8
7 | Cc1cc(C)nc(Nc2nc(-c3ccccc3)c(CC(=O)O)s2)n1 | -1.11
8 | CCOc1ccc(-n2c(C)nc3cc(C(=O)NCc4ccc(F)cc4)ccc32)cc1 | 1.2
9 | CSCCOC(=O)C1=C(C)NC(=O)NC1c1ccc(Cl)c(Cl)c1 (stereo not shown) | 2.7
10 | COc1ccccc1NC(=O)CSc1nc2c(c(C(F)(F)F)c1C#N)CCC2 | -2.56
11 | CCCCC(=O)Nc1nnc(Cc2ccccc2)s1 | -2.28
12 | Cc1ccc(-c2ccc(=O)n(CCC(=O)NCc3ccc(F)cc3)n2)cc1 | 3.24
13 | CCC(C(=O)NCc1ccc(OC(C)C)cc1)n1nc(C)c2c(C)n(-c3ccccc3)nc2c1=O (stereo not shown) | 3.99
14 | COc1ccc(C(=O)N2c3ccccc3C(C)(c3ccccc3)CC2(C)C)cc1 (stereo not shown) | -2
15 | Cc1nn(-c2ccccc2)c(-n2cccc2)c1C(=O)N1CCN(C2CCCCC2)CC1 | 0.137
16 | Cc1ccc(S(=O)(=O)Nc2cccc3ccc(-n4nc(C)cc4C)nc23)cc1 | 4.88
17 | Clc1cc2nc3sc4nc5ccccc5n4c3nc2cc1Cl | -2.23
18 | Cc1nn(CC(=O)NCCCc2ccccc2)c(=O)c2cc3cc(F)ccc3n12 | -5.32
19 | O=C(NC1(C(F)(F)F)NC(=O)N(Cc2cccnc2)C1=O)C1CC1 (stereo not shown) | -0.834
20 | CC(C)C[C@H](NC(=O)OC1CCc2ccccc21)C(=O)NCC#N (stereo partly shown) | -3.04
21 | CCCCCC(=O)N(CN1C(=O)c2ccccc2C1=O)c1ccc(OC)cc1 | -3.03
22 | Cc1ccc2c(C)nc(NC3=NCN(C4CCCC4)CN3)nc2c1 | -1.33
23 | CC(=O)c1ccc(N2CCN(Cc3ccc(Br)o3)CC2)cc1 | 5.35
24 | COc1ccc2[nH]c3c(c2c1)CCNC3CC(=O)O (stereo not shown) | -5.51
25 | CCOC(=O)c1sc(NC(=O)CCn2nnc3ccccc32)c(C(=O)OCC)c1C | 3.81

Row | SMILES | % Inhibition @ 10 uM [%]
26 | Cc1ccc(C)c(OCC(=O)Nc2ccc(S(=O)(=O)N3CCCCCC3)cc2)c1 | -2.76
27 | CCc1nnc(NC(=O)CSc2nnc(-c3c[nH]c4ccccc34)n2C)s1 | 2.12
28 | COc1cccc(NC(=O)COc2ccc(Br)c(C)c2)c1 | -2.29
29 | CC(=O)c1ccc(C(=O)C(=O)c2ccccc2)cc1 | -4.02
30 | COC(=O)c1cc(C2CC2)nc2c1c(C)nn2-c1cccc(Cl)c1C | 1.77
31 | COc1ccc(S(=O)(=O)N(CC(N)=O)c2ccc(C)cc2)cc1Br | -17.7
32 | CCOC(=O)C1=C(O)/C(=C\c2cccc(Cl)c2)N=C1C | -1.6
33 | Cc1ccc(NC(=O)CN2C(=O)S/C(=C\c3ccccc3O)C2=O)cc1 | 50.5
34 | O=C(Cn1ncn2nc(-c3cccs3)cc2c1=O)NCCCc1ccccc1 | 0.623
35 | Cc1ccc(C(=O)N2CCN(c3ccccc3)CC2)cc1S(=O)(=O)N1CCCCC1 | -2.91
36 | Cc1ccc(C(C)C)c(OCCn2cc(C=C3C(=O)NC(=O)NC3=O)c3ccccc32)c1 | 3.72
37 | c1ccc(OCc2ccc(CCCN3CCOCC3)cc2)cc1 | 5.7
38 | Cc1ccc(C)c(N(CC(=O)Nc2ccc(C)c(C)c2)S(C)(=O)=O)c1 | 3.74
39 | CC(C)c1ccc(OCC(O)CNC2CC(C)(C)NC(C)(C)C2)cc1 (stereo not shown) | 2.86
40 | C=CCN1C(=O)C2C3C=CC(C2C1=O)C1C2C(=O)N(CC=C)C(=O)C2C31 (stereo not shown) | -3.77
41 | COCC(C)NC(=O)C1=CC(c2ccc(C)cc2)=NS(=O)(=O)N1C (stereo not shown) | -1.06
42 | C=CCOc1ccc(/C=C2\SC(=O)N(C)C2=O)cc1Br | -1.26
43 | COc1ccc(C2OCC3C(C)C=C(C)C2C3C)cc1 (stereo not shown) | -3.37
44 | Cc1cc(C)c2c(CC(=O)NCc3ccncc3)coc2c1 | -0.671
45 | O=c1c2sc3nc4ccccc4cc3c2ncn1-c1ccccc1 | 2.38
46 | CCOc1ccccc1NC(=O)CN(c1ccccc1C)S(=O)(=O)c1ccc(C)cc1 | -8.67
47 | Cc1onc(-c2c(Cl)cccc2Cl)c1C(=O)OCc1ccc2c(c1)OCO2 | -8.44
48 | COc1ccc(C2=NOC(C(=O)N3CCOCC3)C2)cc1OC (stereo not shown) | -2.16
49 | COC(=O)c1[nH]c2ccc(C)cc2c1-n1cccc1 | 3.29
50 | CC1=CC2=NC(=O)/C(=C\c3ccc(-c4ccc(C)c(Cl)c4)o3)C(=N)N2O1 | 3.63

Row | SMILES | % Inhibition @ 10 uM [%]
51 | CCCc1nc2ccccc2c(=O)n1-c1ccc(C)cc1 | 4.02
52 | O=C1OCCC1Sc1nnc(-c2cccc(Cl)c2)o1 (stereo not shown) | -1.69
53 | O=c1cccc2n1C[C@H]1C[C@@H]2CN(C2CCC(c3ccccc3)CC2)C1 (stereo partly shown) | -0.13
54 | CCN(CC)CCNC(=O)CS(=O)(=O)Cc1nc(-c2ccccc2C)oc1C | -1.89
55 | Cn1c(NCc2ccco2)nc2c1c(=O)n(Cc1ccccc1)c(=O)n2C | -5.14
56 | Cc1cc(C)c(Cn2c(=O)n(CC(=O)NCCc3ccccc3)c(=O)c3sccc32)c(C)c1 | -8.56
57 | COc1ccc(OC)c(CCNC(=O)Cn2ncc3c4ccccc4n(C)c3c2=O)c1 | -0.0741
58 | C#CC(OC(=O)c1ccccc1C(=O)O)c1ccccc1 (stereo not shown) | -0.128
59 | NC(=O)c1c(NC(=O)c2ccc(-c3ccccc3)cc2)sc2c1CCCC2 | -1.65
60 | COc1ccc(S(=O)(=O)N(CC(=O)NC2CCCC2)c2ccc(C)cc2)cc1Br | -0.641
61 | Cc1cc(=O)n(CC(=O)NCc2ccc3c(c2)OCO3)c2c1c(C)nn2C | 2.65
62 | CCN(CC)CCNC(=O)c1sc2nc(-c3ccccc3)cn2c1C | -0.138
63 | Cc1nnc2ccc(N3CCC(C(N)=O)(N4CCCCC4)CC3)nn12 | -0.692
64 | COc1cc(NC(=O)C(c2ccccc2)c2ccccc2)c(OC)cc1Cl | 0.605
65 | COc1ccc(CNCc2cc(OC)c(OC)c(OC)c2)cc1 | 6.91
66 | O=C(O)c1ccc(Oc2ccc(C(=O)c3ccc(C(=O)O)cc3)cc2)cc1 | -1.45
67 | Cc1ccsc1-c1nc(CSCC(=O)NC2CCC(C)CC2)c(C)o1 (stereo not shown) | -2.85
68 | Cc1cccc(NC(=O)COc2ccc(Br)cc2)n1 | -10.3
69 | Cc1ccc(-c2nc(C(=O)NCCN3CCN(Cc4ccccc4)CC3)c3n2CCCCC3)cc1 | -3.17
70 | CC1=C(C(=O)Nc2ccc(F)cc2F)C(c2ccccn2)C2=C(O)CC(C)(C)CC2=N1 (stereo not shown) | 3.46
71 | Cc1ccc(C)c(N2CCN(Cc3ccc(-c4ccc(Cl)cc4)o3)CC2)c1 | 1.57
72 | CCOC(=O)c1sc(NC(=O)CCN2C(=O)c3ccccc3C2=O)c(C(=O)OCC)c1C | 0.736
73 | COc1ccccc1NC(=O)C(C)Oc1ccccc1C (stereo not shown) | -0.425
74 | Cc1nnc(N2C(=N)S/C(=C\c3c(-c4ccccc4)n(C)c4ccccc34)C2=O)s1 | -5.62
75 | COc1cccc(CN2CCN(Cc3ccc(OC)cc3OC)CC2)c1 | -0.48

Row | SMILES | % Inhibition @ 10 uM [%]
76 | CC1CC(C)CN(C(=O)c2cc3ccc4cccnc4c3[nH]2)C1 (stereo not shown) | -1.25
77 | CC1C(c2ccccc2)N(C)C(c2ccccc2)C(C)C1(O)c1ccc(F)cc1 (stereo not shown) | -3.35
78 | CC(Oc1ccc(C(=O)NC2CCCCC2)cc1)C(=O)O (stereo not shown) | -4.33
79 | O=C1CC(c2ccccc2F)c2cc3c(cc2N1)OCO3 (stereo not shown) | -5.26
80 | NC(=O)c1ccccc1NC(=O)c1ccccc1 | 0.98
81 | CC(=O)Nc1c(N2CCCCC2)cnn(-c2ccccc2)c1=O | 4.71
82 | O=C(Cc1nc2ccccc2[nH]1)N1CCCC1 | -2.44
83 | CC(C)(C)OCC(NC(=O)OCc1ccccc1)C(=O)O (stereo not shown) | 4.11
84 | O=C(COc1ccccc1)Nc1nc(-c2ccc(F)cc2F)cs1 | -7.09
85 | CCCCCC(=O)Nc1ccc(N(C)C)cc1 | -2.19
86 | Cc1ccc(C2CC(C(F)(F)F)n3ncc(C(=O)NCc4cnn(C)c4C)c3N2)cc1 (stereo not shown) | 4.22
87 | Cn1c2c(c(O)c(-c3ccccc3)c1=O)C(=O)CC(C)(C)C2 | 3.99
88 | COC(=O)C1=C(N)OC2=C(C(=O)CCC2)C1c1ccc(OC)cc1 (stereo not shown) | 1.54
89 | CC(=O)n1nc(C)cc1-c1ccccc1 | 0.00178
90 | COc1ccccc1N1CCN(C(=O)CN(Cc2ccc(C)cc2)S(=O)(=O)c2ccccc2)CC1 | 3.53
91 | COc1ccccc1NCC(C)(C)CC=C(C)C | -0.0369
92 | OCCOCCNc1ncnc2sc3c(c12)CCCC3 | -2.65
93 | Cc1ccc(C(=O)[C@H]2[C@H]3C(=O)N(C)C(=O)[C@H]3[C@@H]3c4ccccc4C=CN23)cc1 | -3.41
94 | COc1cccc(NC(=O)C2=C(C)NC(=O)NC2c2ccccc2OC)c1 (stereo not shown) | 5.29
95 | Cc1nn(-c2ccc(F)cc2)c(-n2cccc2)c1C(=O)NCCc1c[nH]c2ccccc12 | 4.79
96 | C=CCN1C(=O)/C(=C\c2ccc(C(=O)O)cc2)S/C1=N\c1nnc(C)s1 | 9.39
97 | CCN1C2=C(C(=O)CC(C)(C)C2)C(c2ccc(OC)c(Cl)c2)C2=C1CC(C)(C)CC2=O | 3.47
